Results as given in PubChem BioAssay AID1745853 (National Center for Advancing Translational Sciences (NCATS), 2022).
Where “and” joins values, the source holds several entries; their conditions need not be identical. Equal values may be shown once. The list shows a part of the results. Further columns of the screen follow, without active or inactive calls.

Experiments:
Assay in all cases: Primary Screen for Target Class Profiling of Small Molecule Inhibitors of Methyltransferases
[1] = target: Glycine N-methyltransferase (Homo sapiens) (UniProt Q14749); conditions: purified enzyme, MTase-Glo SAH luminescence; measured here: GNMT inhibition; at 40 µM; stronger effect = lower value
How it was run: (§1)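 Each enzyme was reacted with SAM and its substrate, with compounds tested once at 40 uM; SAH formed was read by MTase-Glo luminescence.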

[2] = target: Guanidinoacetate N-methyltransferase (Homo sapiens) (UniProt Q14353); conditions: purified enzyme, MTase-Glo SAH luminescence; measured here: GAMT inhibition; at 40 µM; stronger effect = lower value
How it was run: as §1

[3] = target: Histamine N-methyltransferase (Homo sapiens) (UniProt P50135); conditions: purified enzyme, MTase-Glo SAH luminescence; measured here: HNMT inhibition; at 40 µM; stronger effect = lower value
How it was run: as §1

[4] = target: Nicotinamide N-methyltransferase (Homo sapiens) (UniProt P40261); conditions: purified enzyme, MTase-Glo SAH luminescence; measured here: NNMT inhibition; at 40 µM; stronger effect = lower value
How it was run: as §1

[5] = target: Phenylethanolamine N-methyltransferase (Homo sapiens) (UniProt P11086); conditions: purified enzyme, MTase-Glo SAH luminescence; measured here: PNMT inhibition; at 40 µM; stronger effect = lower value
How it was run: as §1
% is scaled to controls: 0 for no effect and ±100 for the full control effect.

SMILES | activity change, negative = inhibition [1] | activity change, negative = inhibition [2] [%] | activity change, negative = inhibition [3] | activity change, negative = inhibition [4] | activity change, negative = inhibition [5]
CCN(CC)C(C)CN1c2ccccc2Sc2ccccc21 (centres undefined) | -13.1% | -0.021 | -2.33% | -12.3% | 0.969%
O=C(O)Cc1cn([C@@H]2OC[C@@H](O[C@@H]3O[C@H](CO)[C@@H](O)[C@H](O)[C@H]3O)[C@H](O)[C@H]2O[C@@H]2O[C@H](CO)[C@@H](O)[C@H](O)[C@H]2O)c2ccccc12 | 4.67% | 9.13 | 8.49% | -4.02% | 4.95%
CCc1ccc(NC(=O)Cn2nc3n(CC(C)C)c(=O)c4ccc(C(=O)NCC(C)C)cc4n3c2=O)cc1 | 4.49% | 2.4 | 7.52% | 1.57% | 5.65%
COc1ccc2cc3n(c2c1)CC(C)(C(=O)NC1CCCC1)N(Cc1ccc(F)cc1)C3=O (centres undefined) | -1.37% | 4 | 7.47% | 8.91% | 1.32%
C/C=C(/C)C(=O)OC1C=C2C3C(C)C(C)C(OC(=O)C(C)C(C)O)CC3(C)CCC2(C)C2(C)CC(OC(C)=O)C3C(C)(C)C(O)C(=O)CC3(C)C12 (centres undefined) | -8.39% | -5.78 | 2.67% | -22.2% | -12.1%
COc1ccc(-c2nc(N3CCOCC3)c3sc(CN(C)c4ncc(C(=O)NO)cn4)cc3n2)cn1 | -23.1% | – | -6.79% | 18% | 30.9%
Cc1cccc(Cn2nc3n(Cc4ccccc4)c(=O)c4ccc(C(=O)NC(C)C)cc4n3c2=O)c1 | 4.48% | 0 | 7.1% | 0.318% | 5.7%
COc1cc(-c2ncn(/C=C\C(=O)OC(C)C)n2)cc(C(F)(F)F)c1 | -9.45% | -2 | 7.53% | -20.3% | 2.25%
CSc1cccc(N2C(=O)c3cc4ccccc4n3CC2(C)C(=O)NCCC(C)C)c1 (centres undefined) | -0.825% | 4.21 | -1.81% | -1.34% | -4.5%
CC(C)CNC(=O)c1ccc2c(=O)n(CC(C)C)c3nn(Cc4ccc(Cl)cc4)c(=O)n3c2c1 | 5.52% | 2.5 | 8.25% | 6.92% | 6.33%
CCCCN1C(=O)c2cc(C(=O)Nc3ccc(CC)cc3)nn2CC1(C)C(=O)NC1CCCC1 (centres undefined) | 5.37% | 3.19 | -15.4% | 6.18% | 5.24%
CCn1c(=O)n(CC)c2cc(S(=O)(=O)N3CCN(c4cc(Cl)ccc4C)CC3)ccc21 | 1.4% | 0 | 3.37% | 5.74% | 1.86%
Cc1nc(N2CCC(NC(=O)c3cccnc3)CC2)cc(C(F)(F)F)n1 | -0.346% | -1.1 | 2.59% | -6.34% | 1.93%
CCN1CCN(CCNC(=O)c2cc3n(n2)CC(C)(C(=O)NC2CCCCCC2)N(C)C3=O)CC1 (centres undefined) | 6.33% | -1.19 | -6.55% | 6.52% | -0.208%
NC(=O)c1cc2c(nc1CCC1COc3ccccc3O1)CCC2 (centres undefined) | -3.34% | -0.861 | -13.3% | -5.63% | -3.48%
COc1ccccc1CCNC(=O)Cn1ccc2cc(S(=O)(=O)N3CCCC3)ccc21 | -2.18% | 3.85 | -7.11% | -7.38% | -1.12%
CC(CO[C@@H]1O[C@H](COC(=O)/C=C/c2ccc(O)c(O)c2)[C@@H](O)[C@H](O)[C@H]1O)C1(O)COC(=O)C1 (some centres undefined) | -1.75% | -9.01 | 3.58% | -13.5% | -2.87%
CC(C)Cn1c(=O)c2ccc(C(=O)NC(C)C)cc2n2c(=O)n(CC(=O)Nc3cccc(Cl)c3)nc12 | -2.6% | 0.678 | -3.6% | -8.34% | -5.6%

SMILES | activity change, negative = inhibition [1] | activity change, negative = inhibition [2] [%] | activity change, negative = inhibition [3] | activity change, negative = inhibition [4] | activity change, negative = inhibition [5]
Cn1ncnc1[C@H]1c2n[nH]c(=O)c3cc(F)cc(c23)N[C@@H]1c1ccc(F)cc1 | -5.38% and -4.32% | -8.08 | -11.7% and 2.62% | -6.79% and -20.1% | 10.7% and -14.6%
COc1ccc(C(O)C(C)OC2OC(CO)C(O)C(O)C2O)cc1 (centres undefined) | 0% | 7.72 | 9.86% | -3.13% | 5.11%
CCc1cc2c(cc3n2CC(C)(C(=O)NC2CCC(C)CC2)N(Cc2ccccc2F)C3=O)s1 (centres undefined) | -5.58% | 3.31 | -3.74% | -3.43% | -4.47%
C[C@@]12C(=O)N(c3ccc(C(=O)Nc4cccc5cccnc45)cc3)C(=O)[C@@H]1[C@@H]1C=C[C@H]2C1 | -1.01% | 6.27 | 5.11% | -9.7% | -0.874%
O=C(NC1CCN(c2cc(N3CCOCC3)cnn2)C1)C1CC1 (centres undefined) | -7.78% | -5.99 | -5.38% | -5.86% | -3.77%
COc1ccc(C(=O)N2C(C(=O)N3CCCC3)COC23CCN(C(=O)C2CCC2)CC3)cc1 (centres undefined) | -4.61% | -5.9 | -3.38% | -6.89% | -2.53%
Cc1cnc(Nc2ccc(OCCN3CCCC3)cc2)nc1Nc1cccc(S(=O)(=O)NC(C)(C)C)c1 | -22.3% and -17.5% | 9.26 | -52.2% and -44.2% | -34% and -24.3% | -5.52% and 24.7%
CC(C)CCn1c(=O)c2ccccc2n2c(SCc3ccccc3F)nnc12 | -5.51% | 0 | 7.88% | -14.2% | 3.2%
COc1ccccc1CNC(=O)C1(C)Cn2c(cc3ccccc32)C(=O)N1C1CC1 (centres undefined) | 3.27% | 0.013 | 2.74% | 8.76% | -0.108%
Cc1c2cc(c(C(=O)O)c1C)OC1OC(C(O)C(O)C1O)C(O)C(O)C1OC(O2)C(O)C(O)C1O (centres undefined) | -0.511% | -16.6 | -0.914% | -32% | -0.995%
CCn1c(CO)nnc1C1CC(NC(=O)c2nn(C)c(C)c2Cl)C1 (centres undefined) | -1.25% | -2.47 | -0.161% | -4.48% | 0.189%
CC(C)c1ccc(CNC(=O)c2ccc3c(=O)nc4c(-c5cccc(F)c5)n[nH]n4c3c2)cc1 | -3.86% | -1.49 | 1.33% | -3.89% | -3.65%
O=C(CCn1ccc2cc(S(=O)(=O)N3CCCC3)ccc21)NCc1ccccc1F | 4.21% | 0 | 5% | 4.38% | 3.51%
COc1ccccc1CNC(=O)C1(C)Cn2nc(-c3ccccc3)cc2C(=O)N1c1cccc(Cl)c1 (centres undefined) | 2.9% | 1.59 | 7.3% | 6.19% | 1.49%
CC(=O)Nc1ccc(Nc2nc3c(S(=O)(=O)c4ccc(Cl)cc4)nnn3c3ccccc23)cc1 | -10.7% | -0.086 | -2.94% | -9.96% | -8.35%
COc1cccc(CN2CCCC3(CCN(c4cc(C)nc(N)n4)C3)C2)c1OC (centres undefined) | -9.36% | -15.3 | -55.7% | -12.3% | -4.15%
Cc1ccc(CSc2nnc3n(C)c(=O)c4ccc(C(=O)NC5CCCC5)cc4n23)cc1 | -3% | 0 | 9.89% | 5.95% | 5.07%
COC(=O)c1ccc2c(c1)nc1n2[C@@H](CNC(=O)CC(C)(C)C)COC1 | -5.32% | -3.3 | -2.85% | -13.4% | -21.8%
